In all, about 110,000 compounds were measured (“z-score”: median about -0.1, highest 2% from about 2 on). Some of the results follow. Calls of active or inactive are those of the source.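 Rule for the calls: active = z-score in the third read window above 3 or below -3; inactive = the rest.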

The target of this experiment is Metabotropic glutamate receptor 8 (Rattus norvegicus) (UniProt P70579). The experiment in a line: rat mGluR8 modulators via GIRK flux, primary screen, cell-based, thallium flux, HTS (AID 488969). The conditions noted are these: HEK293 rat mGluR8, GIRK (G protein-gated inwardly rectifying potassium channel) thallium flux, FluoZin2; at 10 µM; stronger effect = higher value; submaximal glutamate (EC20) added with thallium.
Chain of UniProt P70579 (P70579 whole entry, looked up): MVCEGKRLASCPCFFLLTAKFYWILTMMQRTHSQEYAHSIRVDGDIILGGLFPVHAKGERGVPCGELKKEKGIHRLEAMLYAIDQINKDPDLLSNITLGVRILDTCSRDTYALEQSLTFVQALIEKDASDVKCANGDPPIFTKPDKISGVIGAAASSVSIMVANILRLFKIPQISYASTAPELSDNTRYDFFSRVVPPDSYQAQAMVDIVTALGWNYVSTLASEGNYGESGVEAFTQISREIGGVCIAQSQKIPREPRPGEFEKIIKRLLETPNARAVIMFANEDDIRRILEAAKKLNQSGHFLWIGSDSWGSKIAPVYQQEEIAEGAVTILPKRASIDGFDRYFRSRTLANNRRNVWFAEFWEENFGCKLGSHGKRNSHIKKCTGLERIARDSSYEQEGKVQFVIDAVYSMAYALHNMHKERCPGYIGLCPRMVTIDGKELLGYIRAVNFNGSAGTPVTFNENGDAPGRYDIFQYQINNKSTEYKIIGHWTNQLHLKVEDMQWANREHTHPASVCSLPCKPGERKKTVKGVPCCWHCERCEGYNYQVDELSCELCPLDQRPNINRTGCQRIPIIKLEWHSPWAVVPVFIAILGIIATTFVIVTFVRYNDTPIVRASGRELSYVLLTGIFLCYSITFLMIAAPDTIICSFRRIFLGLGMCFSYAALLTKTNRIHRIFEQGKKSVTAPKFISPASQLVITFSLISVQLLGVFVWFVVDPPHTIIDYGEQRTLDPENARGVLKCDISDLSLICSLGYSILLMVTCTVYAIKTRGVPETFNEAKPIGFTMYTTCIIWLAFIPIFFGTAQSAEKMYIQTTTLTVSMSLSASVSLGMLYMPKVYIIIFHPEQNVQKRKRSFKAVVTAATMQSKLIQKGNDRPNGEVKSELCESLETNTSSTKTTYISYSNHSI
In turn, `Cc1cc(C)n(-c2ccc(C(=O)Oc3ccc4c(c3)OCO4)cc2)n1` showed a z-score of 0.31.
In the case of `CCCn1c(SCC(=O)c2ccc3c(c2)NC(=O)CO3)nc2ccccc21` it was 0.211.
Then `CN(Cc1nc(-c2cccnc2)no1)S(=O)(=O)c1ccc2ccccc2c1`, with 0.505; and `CCCCCC(=O)Nc1nc(C)c(-c2csc(Nc3ccccc3OC)n2)s1`, with -0.163; and `CC(C)Oc1ccc(N2CC(C(=O)Nc3ccc(N4CCOCC4)cc3)CC2=O)cc1` (centres undefined), with 0.469.
Molecule `COc1ccc(C(=O)CN2CCN(c3ccc(F)cc3)CC2)cc1OC` had a z-score of -0.00189.
Then `Cc1cc(C(=O)N(C2CCCCC2)C2CCCCC2)no1`, with -0.0698.
`Cc1nn(CC(=O)OCC(=O)Nc2c(C(C)C)cccc2C(C)C)c(C)c1[N+](=O)[O-]` yielded a z-score of -0.262.
Then `C=CCSc1nc(NC)c2sccc2n1`, with -0.598; and `CCOc1ccc(CN(Cc2ccco2)S(=O)(=O)c2ccc(-n3cnnn3)c(OC)c2)cc1`, with 2.75.
Then `COc1ccc(C(=O)Nc2ccc(OC)c(OC)c2)cc1`, with -0.33; and `CCOc1ccc(C(=O)Nc2cc(C)on2)cc1OCC`, with -0.041; and `COc1ccc(S(=O)(=O)N2CCN(C(=O)Cc3cccs3)CC2)cc1`, with 0.11.
`Cc1cccc(N2CN(Cc3cccnc3)CNC2=S)c1C` had a z-score of -0.278.
For the molecule `CCSc1nccc(-c2nn(-c3ccc(C)cc3)ccc2=O)n1`, the z-score was -0.634.
Molecule `CC1CCc2nc(NC(=O)CN3CCN(Cc4ccc5c(c4)OCO5)CC3)sc2C1` (centres undefined) showed a z-score of 2.47.
Then `CCOc1ccc2nc(N3C(=O)/C(=C/c4ccccc4)NC3=S)sc2c1`, with active: 3.66; and `Nc1nc(Nc2cccc(C(F)(F)F)c2)nc(C(F)(F)F)n1`, with -0.205; and `Cc1ccc(C)c(N2C(=O)c3ccc(C(=O)OCC(=O)c4c(N)n(C)c(=O)n(C)c4=O)cc3C2=O)c1`, with 0.0527.
In the case of `Cc1cc(C)nc(N/C(=N\S(=O)(=O)Cc2ccccc2)Nc2cccc(Cl)c2C)n1` it was -0.996.
In turn, `Cc1ccc(/C=N/n2c(-c3cccnc3)n[nH]c2=S)s1` showed a z-score of -0.311.
Then `CCOC(=O)C1=C(C)N(C)C(C)=C(C(=O)OCC)C1c1ccc(Cl)cc1`, with -0.177; and `Cc1c(Br)cc(-c2nnco2)cc1Br`, with -0.16.
In the case of `O=C(O)CSC(NC(=O)c1cccnc1)(C(F)(F)F)C(F)(F)F` it was -1.1; in that of `O=C(CCCNC(=O)/C(=C/c1ccccc1F)NC(=O)c1ccccc1)OCc1ccccc1`, -0.128; in that of `CCOC(=O)c1c(C)[nH]c(C)c1C(=O)CSc1nnc(-c2ccco2)n1Cc1ccccc1`, -1.07.
With `CCC(C(=O)OCC(=O)Nc1c(Cl)cccc1Cl)c1ccccc1` (centres undefined), the z-score is -1.35.
In the case of `O=C(OCc1nnc(-c2ccc(Cl)cc2)o1)c1ccc(=O)n(Cc2ccccc2)n1` it was -0.645; in that of `Cc1ccccc1Cn1c2ccccc2c2cnn(CC(=O)N3CCN(c4ccccc4)CC3)c(=O)c21`, 0.371.

The record behind these values is PubChem BioAssay AID488969 (Vanderbilt High Throughput Screening Facility, 2010).
